Measured values published in PMC11995724, “Antibiotic target discovery by integrated phenotypic and activity-based profiling of electrophilic fragments” (Cell chemical biology, 2025).
The whole screen tested about 3,200 compounds, of which about 110 (3.4%) showed an effect of 50% or more. The list shows a part of the results.

Tested on: T1, V. cholerae SAD30
T1 construct: SAD30
Design: species or system S. aureus MSSA476 (TSB) or V. cholerae SAD30 (LB); 384-well bacterial growth screen at 25 uM, OD600 relative to DMSO control
Conditions: relative growth, OD600, LB; 25 µM; inhibitor

Point of comparison: CC(Cl)C(=O)c1ccc2c(c1)NC(=O)CO2 (stereo not shown) [10-P12, 6-(2-chloropropanoyl)-3,4-dihydro-2H-1,4-benzoxazin-3-one], “% of control remaining” value 105.046%. Against it:
- O=C(Nc1nccs1)N1CCSSCC1 [10-O22, N-(1,3-thiazol-2-yl)-1,2,5-dithiazepane-5-carboxamide] — lower, 98.344%
- N#CC(=Cc1ccc(N2CCOCC2)cc1)C(=O)Nc1nccs1 [9-F17, 2-cyano-3-[4-(morpholin-4-yl)phenyl]-N-(1,3-thiazol-2-yl)prop-2-enamide] — lower, 83.6846%
- CC(=O)Nc1ccc(C=C(C#N)C(=O)Nc2cccc(C)c2C)cc1 [9-D19, 2-cyano-N-(2,3-dimethylphenyl)-3-(4-acetamidophenyl)prop-2-enamide] — lower, 89.5309%
- C=CC(=O)Nc1ccc(C(=O)N[C@@H]2CCN(C(C)=O)C2)cc1 [2-F20, N-[(3R)-1-acetylpyrrolidin-3-yl]-4-(prop-2-enamido)benzamide] — lower, 92.975%
- C=CC(=O)Nc1ccc(F)cc1C(C)(F)F [1-C16, N-[2-(1,1-difluoroethyl)-4-fluorophenyl]prop-2-enamide] — lower, 89.8356%
- COc1ccc2[nH]c(C)c(C(=O)CCl)c2c1 [10-L05, 2-chloro-1-(5-methoxy-2-methyl-1H-indol-3-yl)ethan-1-one] — lower, 103.176%
- Cc1cc(C(=O)CCl)c(C)n1Cc1ccccc1Cl [10-P16, 2-chloro-1-{1-[(2-chlorophenyl)methyl]-2,5-dimethyl-1H-pyrrol-3-yl}ethan-1-one] — lower, 103.643%
- CC(Cl)C(=O)N1CCCCC1c1cnn(C)c1 (stereo not shown) [7-A03, 2-chloro-1-[2-(1-methyl-1H-pyrazol-4-yl)piperidin-1-yl]propan-1-one] — lower, 97.5384%
- CN(CC(=O)Nc1ccc(F)cc1)C(=O)CCl [4-B05, 2-chloro-N-{[(4-fluorophenyl)carbamoyl]methyl}-N-methylacetamide] — higher, 108.518%
- C=CC(=O)N1CCC(C(=O)N[C@]2(C(=O)OC)CC[C@@H](C)CC2)CC1 [3-E17, methyl (1r,4r)-4-methyl-1-[1-(prop-2-enoyl)piperidine-4-amido]cyclohexane-1-carboxylate] — lower, 101.088%
- Cc1nc2cc(=O)[nH]n2c(C)c1CNC(=O)C(C)Cl (stereo not shown) [7-B07, 2-chloro-N-({5,7-dimethyl-2-oxo-1H,2H-pyrazolo[1,5-a]pyrimidin-6-yl}methyl)propanamide] — lower, 88.5511%
- COc1cc2c(cc1OC)C(c1ccccc1)N(C(=O)CCl)CC2 (stereo not shown) [6-K12, 2-chloro-1-(6,7-dimethoxy-1-phenyl-1,2,3,4-tetrahydroisoquinolin-2-yl)ethan-1-one] — lower, 94.0373%
- CC1CCCCC1NC(=O)C(C#N)=Cc1ccc(N2CCOCC2)cc1 (stereo not shown) [8-I06, 2-cyano-N-(2-methylcyclohexyl)-3-[4-(morpholin-4-yl)phenyl]prop-2-enamide] — lower, 76.2067%
- O=C(CCl)NCc1ccccc1[N+](=O)[O-] [6-A22, 2-chloro-N-[(2-nitrophenyl)methyl]acetamide] — higher, 107.84%
- C=CC(=O)Nc1c(C)cccc1SCC(=O)N(C)C [1-E13, N-(2-{[(dimethylcarbamoyl)methyl]sulfanyl}-6-methylphenyl)prop-2-enamide] — lower, 88.7892%
- CC(C)NC(=O)C(C#N)=Cc1ccc2c(c1)OCCO2 [9-E11, 2-cyano-3-(2,3-dihydro-1,4-benzodioxin-6-yl)-N-(propan-2-yl)prop-2-enamide] — lower, 88.1713%
- CN(C)c1ccc(C=C(C#N)C(N)=O)cc1 [9-O04, 2-cyano-3-[4-(dimethylamino)phenyl]prop-2-enamide] — lower, 89.8029%
- O=C(CCl)Nc1nnc(-c2ccccc2Cl)s1 [6-K17, 2-chloro-N-[5-(2-chlorophenyl)-1,3,4-thiadiazol-2-yl]acetamide] — lower, 95.8574%
- C=CC(=O)N1CCOC2(CCS(=O)(=O)C2)C1 (stereo not shown) [2-C06, 9-(prop-2-enoyl)-6-oxa-2lambda6-thia-9-azaspiro[4.5]decane-2,2-dione] — lower, 96.2173%
- C=CC(=O)NCc1ccc(C(=O)N2CCC(C#N)CC2)cc1 [3-P05, N-{[4-(4-cyanopiperidine-1-carbonyl)phenyl]methyl}prop-2-enamide] — higher, 107.793%
- COc1ccccc1CN1C(=O)C=CC1=O [10-P21, 1-[(2-methoxyphenyl)methyl]-2,5-dihydro-1H-pyrrole-2,5-dione] — lower, 42.8599%
- CC(Cl)C(=O)NCCc1csc(N2CCCC2)n1 (stereo not shown) [7-O08, 2-chloro-N-{2-[2-(pyrrolidin-1-yl)-1,3-thiazol-4-yl]ethyl}propanamide] — lower, 73.0877%
- COc1ccccc1NC(=O)C(C#N)=Cc1ccccc1F [8-E11, 2-cyano-3-(2-fluorophenyl)-N-(2-methoxyphenyl)prop-2-enamide] — lower, 73.2155%
- CCOc1ccc(-n2c(C)cc(C(=O)CCl)c2C)cc1 [10-K08, 2-chloro-1-[1-(4-ethoxyphenyl)-2,5-dimethyl-1H-pyrrol-3-yl]ethan-1-one] — lower, 98.9675%
- C=CC(=O)N1CCC(NC(C)=O)(c2noc(C)n2)C1 (stereo not shown) [2-G16, N-[3-(5-methyl-1,2,4-oxadiazol-3-yl)-1-(prop-2-enoyl)pyrrolidin-3-yl]acetamide] — lower, 100.077%
- C=CC(=O)NC1CCC(n2c(C)ccc2C)CC1 (stereo not shown) [2-E19, N-[4-(2,5-dimethyl-1H-pyrrol-1-yl)cyclohexyl]prop-2-enamide] — lower, 98.2245%
- N#CC(=Cc1ccc(Cl)cc1Cl)C(=O)Nc1nccs1 [9-H19, 2-cyano-3-(2,4-dichlorophenyl)-N-(1,3-thiazol-2-yl)prop-2-enamide] — lower, 79.4697%
